The list shows a part of the results. Sequences were assembled here from the parent chain. Inactive controls read about 0.05.
B1: TEV protease; numbered along this chain (parent)
chain: MGESLFKGPRDYNPISSSICHLTNESDGHTTSLYGIGFGPFIITNKHLFRRNNGTLVVQSLHGVFKVKDTTTLQQHLVDGRDMIIIRMPKDFPPFPQKLKFREPQREERICLVTTNFQTKSMSSMVSDTSCTFPSGDGIFWKHWIQTKDGQCGSPLVSTRDGFIVGIHSASNFTNTNNYFTSVPKNFMELLTNQEAQQWVSGWRLNADSVLWGGHKVFMVKPEEPFQPVKEATQL

Variants of: B1
Test: raw area under fraction-flipped curve 0-4 h after induction (AUC4h, not background-subtracted), DNA-recorder readout of cleavage of the substrate (dimensionless); higher = more cleavage of the substrate by the protease variant
Details: temperature: 34 °C; time window: 0-4 h after rhamnose induction
Protocol: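 In vivo DNA recorder in E. coli TOP10(DE3) ΔrhaA at 34 °C. Each TEVp single-site mutant (parent TEVp 0) is paired with a single-site variant of the 7-mer TEVs (canonical ENLYFQ|S). The substrate sits between flexible linkers in a Bxb1-sfGFP-TEVs-SsrA fusion, so cleavage stabilises Bxb1 and speeds flipping of a recombination array, read by NGS. The value is the raw area under the fraction-flipped curve over 0-4 h after rhamnose induction (AUC4h), with ≥20 reads per time point. It is not background-subtracted; inactive controls average about 0.047.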
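Note: Bxb1 expression induced with 0.2% (w/v) L-rhamnose at OD600 near 0.5, cultures sampled hourly, flipped fraction per protease–substrate barcode pair counted by paired-end Illumina sequencing.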

| Variant | area with substrate ECLYFQS | area with substrate EDLYFQS | area with substrate EELYFQS | area with substrate EILYFQS | area with substrate EKLYFQS | area with substrate EMLYFQS | area with substrate EPLYFQS | area with substrate ERLYFQS | area with substrate ESLYFQS | area with substrate EVLYFQS |
| --- | --- | --- | --- | --- | --- | --- | --- | --- | --- | --- |
| C152T | 0.0881 | 0.051 | 0.0401 | 0.0491 | 0.049 | 0.0609 | 0.0476 | 0.0694 | 0.0648 | 0.0652 |
| C152Y | 0.0724 | – | 0.0512 | – | 0.0559 | 0.0523 | – | – | – | – |
| V183K | 0.0502 | 0.04 | 0.0743 | 0.065 | 0.0286 | – | – | – | 0.06 | 0.0366 |
| N186V | 0.123 | – | 0.108 | 0.1 | 0.0733 | – | 0.0802 | 0.0915 | – | 0.0753 |
| T119E | 0.0761 | 0.109 | 0.137 | – | – | 0.152 | – | 0.118 | – | 0.13 |
| W144F | 0.0848 | – | – | 0.0529 | 0.0867 | – | 0.0817 | 0.0847 | 0.0825 | 0.0771 |
| I110E | – | 0.0272 | 0.0438 | – | – | – | 0.0513 | – | 0.0375 | – |
| T192K | 0.0853 | 0.0935 | 0.103 | 0.0836 | 0.0925 | 0.104 | 0.0849 | 0.0951 | 0.0917 | – |
| T192R | 0.13 | 0.142 | 0.113 | 0.114 | 0.124 | 0.09 | 0.0953 | 0.0573 | 0.0976 | 0.108 |
| G136K | 0.0749 | 0.0915 | 0.121 | 0.102 | – | – | – | – | 0.1 | 0.0727 |
| G136E | 0.0969 | 0.112 | – | – | 0.0569 | 0.0996 | 0.111 | 0.13 | 0.102 | 0.106 |
| G136V | 0.0837 | – | 0.127 | 0.112 | – | 0.0987 | 0.108 | 0.1 | 0.124 | 0.0909 |
| G136F | 0.0861 | 0.101 | 0.119 | 0.094 | 0.114 | – | 0.118 | 0.102 | 0.111 | 0.0983 |
| I145R | – | 0.0674 | – | – | 0.054 | 0.0755 | – | 0.0668 | 0.0556 | 0.0598 |
| F117L | 0.0773 | – | 0.12 | – | – | 0.118 | 0.168 | – | – | 0.11 |
| D149R | 0.0951 | – | – | 0.0832 | – | – | – | 0.096 | 0.13 | – |
| D208L | 0.0626 | 0.0639 | – | – | – | – | – | – | – | 0.0601 |
| D208H | – | 0.0846 | – | 0.0644 | – | – | – | 0.0822 | 0.104 | 0.103 |

| Variant | area with substrate ECLYFQS | area with substrate EDLYFQS | area with substrate EELYFQS | area with substrate EILYFQS | area with substrate EKLYFQS | area with substrate EMLYFQS | area with substrate EPLYFQS | area with substrate ERLYFQS | area with substrate ESLYFQS | area with substrate EVLYFQS |
| --- | --- | --- | --- | --- | --- | --- | --- | --- | --- | --- |
| D208F | 0.068 | – | – | 0.0632 | 0.0401 | – | 0.0753 | 0.056 | 0.0797 | 0.069 |
| D208I | 0.0605 | 0.0722 | 0.0756 | 0.0501 | 0.0454 | 0.0781 | 0.0709 | 0.0588 | 0.0678 | 0.0585 |
| D208R | 0.0672 | 0.0749 | 0.0789 | 0.076 | 0.0813 | – | 0.0932 | 0.0571 | 0.0933 | 0.0635 |
| D137P | 0.107 | – | – | 0.0873 | – | – | 0.122 | – | 0.124 | – |
| E195Y | 0.104 | 0.147 | – | – | – | – | – | 0.111 | 0.116 | 0.0873 |
| T176P | 0.0586 | 0.0691 | 0.065 | 0.0557 | – | – | – | – | 0.0608 | 0.0536 |
| S18M | – | – | 0.0977 | – | 0.11 | – | 0.118 | 0.113 | 0.0968 | 0.0799 |
| P228F | 0.078 | 0.121 | – | 0.0974 | – | – | 0.0975 | – | 0.0924 | 0.0769 |
| T174Y | 0.107 | – | – | – | 0.114 | 0.136 | – | – | – | 0.0999 |
| I86N | – | 0.0503 | 0.0477 | – | – | – | – | 0.0439 | 0.0489 | 0.0455 |
| V200Y | 0.0666 | 0.0462 | – | 0.0619 | – | – | – | 0.0537 | 0.0761 | 0.0592 |
| V200K | – | 0.0775 | – | 0.0752 | – | 0.0958 | – | 0.0838 | 0.0796 | – |
| V200G | 0.0294 | – | – | – | – | – | – | – | 0.0735 | 0.0808 |
| V200Q | – | 0.123 | – | 0.09 | – | – | – | – | – | 0.0957 |
| E223Q | 0.13 | 0.162 | 0.108 | 0.0812 | 0.122 | – | – | 0.122 | 0.108 | 0.0812 |
| I85L | – | – | 0.093 | 0.101 | 0.102 | 0.115 | – | – | 0.125 | 0.0975 |
| G35E | – | 0.0511 | 0.036 | – | 0.0386 | – | – | – | 0.0444 | – |
| T159C | 0.0885 | – | – | – | – | 0.112 | – | – | – | – |

Same assay, conditions: temperature: 34 °C; time window: 0-4 h after rhamnose induction

| Variant | area with substrate EWLYFQS | area with substrate EYLYFQS | area with substrate EGLYFQS | area with substrate ELLYFQS | area with substrate EQLYFQS | area with substrate EHLYFQS | area with substrate ETLYFQS | area with substrate EFLYFQS |
| --- | --- | --- | --- | --- | --- | --- | --- | --- |
| C152T | 0.0693 | 0.0521 | – | – | – | – | – | – |
| C152Y | 0.047 | – | 0.0281 | – | – | – | – | – |
| V183K | 0.0427 | – | – | 0.0585 | 0.0517 | – | – | – |
| N186V | – | – | 0.0779 | 0.0571 | – | 0.0938 | 0.0953 | – |
| T119E | – | – | 0.111 | – | – | 0.112 | – | – |
| W144F | – | – | 0.0754 | – | – | – | 0.0947 | – |
| I110E | 0.0482 | 0.0532 | – | – | – | – | – | – |
| T192K | 0.0789 | – | 0.08 | 0.0779 | 0.101 | – | – | – |
| T192R | 0.0619 | 0.105 | 0.0883 | 0.0945 | 0.0995 | 0.0996 | 0.11 | – |
| G136K | 0.0898 | 0.0836 | 0.112 | – | – | – | 0.145 | – |
| G136E | 0.0809 | – | – | 0.0896 | – | 0.0511 | 0.122 | – |
| G136V | – | 0.0837 | 0.0988 | – | 0.115 | 0.0937 | – | – |
| G136F | 0.0596 | 0.133 | 0.0949 | 0.103 | 0.113 | 0.0858 | 0.14 | 0.121 |
| I145R | – | 0.047 | – | – | – | 0.0691 | 0.0525 | 0.0472 |
| F117L | – | – | 0.11 | 0.097 | – | – | 0.132 | – |
| D149R | – | – | – | – | – | 0.121 | – | – |
| D208L | – | – | 0.0581 | – | 0.092 | – | – | – |
| D208H | – | – | – | – | 0.132 | – | – | – |

| Variant | area with substrate EWLYFQS | area with substrate EYLYFQS | area with substrate EGLYFQS | area with substrate ELLYFQS | area with substrate EQLYFQS | area with substrate EHLYFQS | area with substrate ETLYFQS | area with substrate EFLYFQS |
| --- | --- | --- | --- | --- | --- | --- | --- | --- |
| D208F | – | 0.0876 | – | – | – | 0.0645 | 0.0745 | – |
| D208I | 0.0916 | 0.0722 | 0.078 | 0.0687 | 0.0982 | 0.0829 | 0.0703 | – |
| D208R | 0.0599 | – | 0.0683 | 0.0776 | 0.0837 | – | 0.0886 | – |
| D137P | 0.142 | – | – | 0.113 | – | – | 0.116 | – |
| E195Y | – | – | – | – | 0.102 | – | – | – |
| T176P | 0.0546 | – | – | – | 0.0518 | – | – | – |
| S18M | 0.123 | 0.0962 | 0.0914 | 0.132 | – | – | 0.105 | – |
| P228F | – | – | – | 0.0893 | – | 0.0885 | 0.0913 | – |
| T174Y | 0.0891 | – | 0.09 | – | 0.108 | – | 0.108 | 0.104 |
| I86N | – | – | – | – | 0.0497 | 0.0697 | – | 0.0453 |
| V200Y | – | 0.0496 | 0.0512 | – | 0.0449 | – | 0.0693 | 0.0652 |
| V200K | – | – | – | – | 0.0771 | – | – | 0.0572 |
| V200G | 0.0567 | – | – | – | – | – | – | – |
| V200Q | – | – | 0.0727 | – | – | – | – | – |
| E223Q | – | 0.0761 | – | – | 0.102 | – | – | – |
| I85L | – | – | – | – | – | – | 0.122 | 0.121 |
| G35E | 0.0066 | – | 0.0242 | – | – | – | – | – |
| T159C | – | – | 0.126 | – | 0.117 | – | – | – |
